# Results as given in PubChem BioAssay (Tox21).
# The inconclusive results got no clear call from the source; some entries with a clear call stand among them for comparison. For some assays here: Where the call is inconclusive, the potency comes from a doubtful curve fit. Active and inactive are the calls of the source. Unless noted, calls come from the whole dose curve.
# Tests used:
# [1] = qHTS assay for small molecule agonists of the antioxidant response element (ARE) signaling pathway (AID 743202; active = well fitted activation curve with a large enough effect in the signal ratio in the repeat runs, not every such curve was filed as active; inconclusive = weak or mixed curves, or effect the other way; inactive = no such curve, though single readings can be large or run the other way; the % refers to the signal ratio; note: potency is the fitted concentration of half-maximal effect; for activation: % is set by controls: 0 for no effect and ±100 for the full control effect); settings: HepG2 ARE-bla reporter, beta-lactamase FRET, 16 h; activation: at 73.3 µM (top of the series) unless noted
# Summary of the method: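 After 16 hours of compound treatment at 37 C, HepG2 cells with a stably integrated ARE-driven beta-lactamase reporter were loaded 2 hours at room temperature with LiveBLAzer B/G FRET substrate and fluorescence intensity measured.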
# [2] = qHTS assay for small molecule activators of the heat shock response signaling pathway - cell viability counter screen (AID 743209; active = well fitted curve in the direction sought with a large enough effect in the repeat runs; inconclusive = weak or mixed curves; inactive = no such curve, though single readings can be large; an effect the other way counts as inactive or inconclusive; note: nearly all actives have a fitted effect of over 50% in size; note: potency is the fitted concentration of half-maximal effect); settings: HSE-bla HeLa viability, CellTiter-Glo luminescence, 5 h; activity change, negative = cytotoxicity: at 62.6 µM (top of the series)
# Summary of the method: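 Cytotoxicity counter screen run in the same wells as the heat-shock bla reporter assay: HeLa HSE-bla cells, 5 h compound exposure at 37 C, viability read by CellTiter-Glo luminescence.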
# [3] = target: Peroxisome proliferator-activated receptor delta (Homo sapiens) (UniProt Q03181); assay: qHTS assay to identify small molecule agonists of the peroxisome proliferator-activated receptor delta (PPARd) signaling pathway (AID 743212); settings: HEK293H PPARd-UAS-bla, beta-lactamase FRET ratio, 17 h; activation: at 62.6 µM (top of the series) unless noted;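 note: HEK293H cells with PPARd UAS beta-lactamase reporter GeneBLAzer system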; note: potency is the fitted concentration of half-maximal effect
# Summary of the method: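 Beta-lactamase reporter readout: a ratiometric FRET signal from the LiveBLAzer substrate after 2 h at room temperature. Compound exposure at 37 °C in PPARδ-bla HEK293H cells driven by an upstream activator sequence.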
# [4] = qHTS assay to identify small molecule antagonists of the peroxisome proliferator-activated receptor delta (PPARd) signaling pathway - cell viability counter screen (AID 743213; active = well fitted curve in the direction sought with a large enough effect in the repeat runs; inconclusive = weak or mixed curves; inactive = no such curve, though single readings can be large; an effect the other way counts as inactive or inconclusive; note: nearly all actives have a fitted effect of over 50% in size; note: potency is the fitted concentration of half-maximal effect); settings: PPARd-bla HEK293H viability, CellTiter-Glo luminescence, 17 h; viability change, negative = cytotoxic: at 62 µM (top of the series) unless noted
# Summary of the method: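 PPARd-bla HEK293H cells (3000/well) got compound plus 300 nM L165041 agonist for 17 h at 37 C. Viability in the same wells came from CellTiter-Glo luminescence after 30 min at room temperature.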
# [5] = target: Peroxisome proliferator-activated receptor delta (Homo sapiens) (UniProt Q03181); assay: qHTS assay to identify small molecule antagonists of the peroxisome proliferator-activated receptor delta (PPARd) signaling pathway (AID 743215; active = well fitted inhibition curve with a large enough effect in the signal ratio in the repeat runs, not every such curve was filed as active; inconclusive = weak or mixed curves, or effect the other way; inactive = no such curve, though single readings can be large or run the other way; the % refers to the signal ratio;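 note: cells stimulated with agonist L165041 at 300 nM final during compound exposure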; note: potency is the fitted concentration of half-maximal effect); settings: HEK293H PPARd-UAS-bla, beta-lactamase FRET ratio, antagonist, 17 h; ratio activity, negative = inhibition: at 62 µM (top of the series) unless noted
# Summary of the method: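 Agonist L165041 (300 nM final) added with compound to PPARd-bla HEK293H UAS-bla reporter cells; 17 h incubation at 37 C. Read-out: LiveBLAzer FRET substrate, 2 h at room temperature, fluorescence intensity.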
# [6] = qHTS assay to identify small molecule antagonists of the farnesoid-X-receptor (FXR) signaling pathway - cell viability counter screen (AID 743221; active = well fitted cell-killing curve with a large enough effect in the repeat runs, not every such curve was filed as active; inconclusive = weak or mixed curves, or effect the other way; inactive = no such curve, though single readings can be large or run the other way; note: potency is the fitted concentration of half-maximal effect; nearly all actives have a fitted effect of over 50% in size); settings: FXR-bla HEK293T viability, CellTiter-Glo luminescence, 16 h; activity change, negative = cytotoxicity: at 62.6 µM (top of the series) unless noted
# Summary of the method: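 In GeneBLAzer FXR-UAS-bla HEK 293T cells stimulated with 50 uM chenodeoxycholic acid (final), compounds acted for 16 h at 37 C. Viability was assessed afterwards by CellTiter-Glo luminescence.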
# [7] = target: Vitamin D3 receptor (Homo sapiens) (UniProt P11473); assay: qHTS assay to identify small molecule antagonists of the vitamin D receptor (VDR) signaling pathway (AID 743223; active = well fitted inhibition curve with a large enough effect in the signal ratio in the repeat runs, not every such curve was filed as active; inconclusive = weak or mixed curves, or effect the other way; inactive = no such curve, though single readings can be large or run the other way; the % refers to the signal ratio; note: potency is the fitted concentration of half-maximal effect; for activity change, negative = inhibition: % is set by controls: 0 for no effect and ±100 for the full control effect); settings: VDR-UAS-bla HEK293T, beta-lactamase FRET ratio, 16 h; activity change, negative = inhibition: at 61 µM (top of the series) unless noted
# Summary of the method: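 Agonist 1alpha,25-dihydroxyvitamin D3 (3 nM in well) was added with each compound to VDR-bla cells preincubated 4 h. Cells stood 16 h at 37C, then FRET substrate 2 h at room temperature; fluorescence intensity recorded.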
# [8] = qHTS assay to identify small molecule agonists of the AP-1 signaling pathway (AID 1159526); settings: ME-180 (cervical carcinoma) AP-1-bla reporter, beta-lactamase FRET ratio, 5 h; activation: at 76.8 µM (top of the series) unless noted; note: potency is the fitted concentration of half-maximal effect; for activation: % is set by controls: 0 for no effect and ±100 for the full control effect
# [9] = qHTS assay for small molecule activators of the heat shock response signaling pathway (AID 743210; active = well fitted activation curve with a large enough effect in the signal ratio in the repeat runs, with a control signal flat, not every such curve was filed as active; inconclusive = weak or mixed curves; the % refers to the signal ratio; note: potency is the fitted concentration of half-maximal effect); settings: HeLa HSE-bla reporter, beta-lactamase ratio, 5 h; activation: at 62.6 µM (top of the series) unless noted
# Summary of the method: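 Compound exposure lasted 5 h at 37 C in HeLa cells carrying a heat-shock-element-driven beta-lactamase reporter. Read-out: fluorescence intensity after 2.5 h room-temperature loading with LiveBLAzer B/G FRET substrate.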
# [10] = qHTS assay to identify small molecule agonists of the peroxisome proliferator-activated receptor delta (PPARd) signaling pathway - cell viability counter screen (AID 743211; active = well fitted curve in the direction sought with a large enough effect in the repeat runs; inconclusive = weak or mixed curves; inactive = no such curve, though single readings can be large; an effect the other way counts as inactive or inconclusive; note: nearly all actives have a fitted effect of over 55% in size; note: potency is the fitted concentration of half-maximal effect); settings: PPARd-bla HEK293H viability, CellTiter-Glo luminescence, 17 h; activity change, negative = cytotoxicity: at 62.6 µM (top of the series)
# Summary of the method: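 Luminescent ATP viability assay (CellTiter-Glo, 30 min RT) in UAS-bla HEK293H cells carrying the PPAR delta reporter construct, 3000 cells/well, after a 17 h compound treatment at 37 C.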
# [11] = qHTS assay to identify small molecule antagonists of the vitamin D receptor (VDR) signaling pathway - cell viability counter screen (AID 743225; active = well fitted curve in the direction sought with a large enough effect in the repeat runs; inconclusive = weak or mixed curves; inactive = no such curve, though single readings can be large; an effect the other way counts as inactive or inconclusive; note: nearly all actives have a fitted effect of over 50% in size; note: potency is the fitted concentration of half-maximal effect); settings: VDR-bla HEK293T viability, CellTiter-Glo luminescence, 16 h; viability change, negative = cytotoxic: at 61 µM (top of the series) unless noted
# Summary of the method: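 Luminescent cell viability (CellTiter-Glo) in VDR-bla HEK 293T cells after 16 h compound exposure at 37C in the presence of 3 nM final 1-alpha,25-dihydroxy vitamin D3.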
# [12] = target: Bile acid receptor (Homo sapiens) (UniProt Q96RI1); assay: qHTS assay to identify small molecule antagonists of the farnesoid-X-receptor (FXR) signaling pathway (AID 743217; active = well fitted inhibition curve with a large enough effect in the signal ratio in the repeat runs, not every such curve was filed as active; inconclusive = weak or mixed curves, or effect the other way; inactive = no such curve, though single readings can be large or run the other way; the % refers to the signal ratio; note: % is set by controls: 0 for no effect and ±100 for the full control effect); settings: HEK293T FXR-UAS-bla, beta-lactamase ratio, CDCA-stimulated, 16 h; activity change, negative = inhibition: at 62.6 µM (top of the series) unless noted
# Summary of the method: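 Antagonist mode: chenodeoxycholic acid at 50 uM final stimulates a UAS-driven beta-lactamase reporter in HEK 293T FXR-bla cells during 16 h, 37C compound exposure. Read-out is FRET substrate fluorescence after 2 h at room temperature.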
# [13] = qHTS assay for small molecule agonists of the antioxidant response element (ARE) signaling pathway - cell viability counter screen (AID 743203); settings: ARE-bla HepG2 viability, CellTiter-Glo luminescence, 16 h; viability change, negative = cytotoxic: at 73.3 µM (top of the series); note: potency is the fitted concentration of half-maximal effect; nearly all actives have a fitted effect of over 55% in size
# Summary of the method: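 Viability counter screen: CellTiter-Glo luminescence, read after 30 min at room temperature, in ARE-bla HepG2 wells. Compound exposure lasted 16 h at 37C/5% CO2, following a 5 h pre-incubation of the cells after plating.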
# [14] = qHTS assay to identify small molecule agonists of the vitamin D receptor (VDR) signaling pathway - cell viability counter screen (AID 743224; active = well fitted curve in the direction sought with a large enough effect in the repeat runs; inconclusive = weak or mixed curves; inactive = no such curve, though single readings can be large; an effect the other way counts as inactive or inconclusive; note: nearly all actives have a fitted effect of over 50% in size; note: potency is the fitted concentration of half-maximal effect); settings: VDR-bla HEK293T viability, CellTiter-Glo luminescence, 16 h; activity change, negative = cytotoxicity: at 62.6 µM (top of the series)
# Summary of the method: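 Counter screen run in the same wells as the VDR-bla reporter assay: CellTiter-Glo luminescence, 30 min at room temperature, after 16 h compound treatment at 37C of cells pre-plated for 4 h.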
# [15] = target: Vitamin D3 receptor (Homo sapiens) (UniProt P11473); assay: qHTS assay to identify small molecule agonists of the vitamin D receptor (VDR) signaling pathway (AID 743222); settings: HEK293T VDR-UAS-bla, beta-lactamase FRET ratio, 16 h; activation: at 63.5 µM (top of the series) unless noted; note: potency is the fitted concentration of half-maximal effect
# Summary of the method: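 Agonist mode, beta-lactamase reporter: fluorescence from LiveBLAzer B/G FRET substrate (2 h, room temperature) read after 16 h compound treatment at 37 C of VDR-bla cells, which were pre-incubated 4 h after seeding.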
# [16] = qHTS assay to identify small molecule agonists of the farnesoid-X-receptor (FXR) signaling pathway - cell viability counter screen (AID 743218; active = well fitted curve in the direction sought with a large enough effect in the repeat runs; inconclusive = weak or mixed curves; inactive = no such curve, though single readings can be large; an effect the other way counts as inactive or inconclusive; note: potency is the fitted concentration of half-maximal effect; nearly all actives have a fitted effect of over 45% in size); settings: FXR-bla HEK293T viability, CellTiter-Glo luminescence, 16 h; viability change, negative = cytotoxic: at 62.6 µM (top of the series) unless noted
# Summary of the method: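 Viability counter screen in the same wells: CellTiter-Glo luminescence, 30 min room-temperature incubation, measured after the beta-lactamase read. Cells were GeneBLAzer FXR-UAS-bla HEK 293T, compound-treated 16 h at 37C.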
# Tags give direction and shape of the fitted curve or compound fluorescence and quenching.
# Sequence of UniProt P11473 (P11473 whole entry, looked up): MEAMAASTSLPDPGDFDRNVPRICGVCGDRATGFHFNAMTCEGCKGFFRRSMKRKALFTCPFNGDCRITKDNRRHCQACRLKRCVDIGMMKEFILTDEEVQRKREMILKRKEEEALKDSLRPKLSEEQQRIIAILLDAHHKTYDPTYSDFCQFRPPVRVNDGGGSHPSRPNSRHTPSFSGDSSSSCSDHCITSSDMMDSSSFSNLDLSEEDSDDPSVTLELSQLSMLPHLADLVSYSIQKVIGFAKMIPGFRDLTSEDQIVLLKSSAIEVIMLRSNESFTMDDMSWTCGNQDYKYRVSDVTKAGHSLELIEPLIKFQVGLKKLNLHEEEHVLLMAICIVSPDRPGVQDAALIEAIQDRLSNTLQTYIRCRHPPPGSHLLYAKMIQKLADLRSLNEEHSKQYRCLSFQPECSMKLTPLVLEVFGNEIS
# Sequence of UniProt Q03181 (Q03181 whole entry, looked up): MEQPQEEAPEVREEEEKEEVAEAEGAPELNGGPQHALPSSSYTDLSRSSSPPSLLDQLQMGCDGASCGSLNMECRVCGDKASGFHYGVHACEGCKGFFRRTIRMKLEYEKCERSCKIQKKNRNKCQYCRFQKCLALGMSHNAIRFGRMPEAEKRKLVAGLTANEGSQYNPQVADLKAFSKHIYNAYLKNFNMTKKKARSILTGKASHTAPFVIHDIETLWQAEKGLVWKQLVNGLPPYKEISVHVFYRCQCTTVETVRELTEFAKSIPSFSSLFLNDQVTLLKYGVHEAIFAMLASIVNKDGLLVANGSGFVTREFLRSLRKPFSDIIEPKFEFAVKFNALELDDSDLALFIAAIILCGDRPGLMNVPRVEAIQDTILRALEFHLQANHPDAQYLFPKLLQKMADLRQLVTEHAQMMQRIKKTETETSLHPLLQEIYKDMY
# Sequence of UniProt Q96RI1 (Q96RI1 whole entry, looked up): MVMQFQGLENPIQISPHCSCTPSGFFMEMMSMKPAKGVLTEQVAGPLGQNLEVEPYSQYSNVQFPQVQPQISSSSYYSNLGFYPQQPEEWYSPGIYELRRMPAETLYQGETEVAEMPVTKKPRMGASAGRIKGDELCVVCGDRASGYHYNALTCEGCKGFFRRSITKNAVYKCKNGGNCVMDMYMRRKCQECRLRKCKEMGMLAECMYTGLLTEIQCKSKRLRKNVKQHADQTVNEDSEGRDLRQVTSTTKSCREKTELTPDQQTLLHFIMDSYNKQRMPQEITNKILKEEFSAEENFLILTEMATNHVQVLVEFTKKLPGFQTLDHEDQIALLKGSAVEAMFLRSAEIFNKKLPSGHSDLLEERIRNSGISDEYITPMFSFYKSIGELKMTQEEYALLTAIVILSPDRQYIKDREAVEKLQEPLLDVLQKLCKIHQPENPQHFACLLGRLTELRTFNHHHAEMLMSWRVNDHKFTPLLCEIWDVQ
compound,measurement,setting,value
O=C(O)c1cccnc1Nc1cccc(C(F)(F)F)c1,Potency,[1],"inconclusive: 26.6 µM [rising, partial curve]"
same,Potency,[2],"inconclusive: 0.75 µM [cytotoxic, partial curve, poor fit]"
same,Potency,[3],"inconclusive: 33.5 µM [rising, partial curve, poor fit]"
same,Potency,[4],"inconclusive: 33.5 µM [cytotoxic, single point]"
same,Potency,[5],"inconclusive: 0.0053 µM [fluorescent, full curve, poor fit]"
same,Potency,[6],"inconclusive: 33.5 µM [falling, single point]"
same,"activity change, negative = inhibition",[7],inconclusive: 13.6%
same,Potency,[8],inactive
CCN1CCC[C@H]1CNC(=O)c1c(OC)ccc(Br)c1OC,Potency,[1],inactive
same,Potency,[2],inactive
same,Potency,[4],inactive
same,"activity change, negative = inhibition",[7],inconclusive: 2.44%
same,Potency,[8],inactive
CC(Oc1c(Cl)cccc1Cl)C1=NCCN1 (stereo unspecified),Potency,[1],"inconclusive: 23.7 µM [falling, partial curve]"
same,Potency,[9],"inconclusive: 33.5 µM [activator, partial curve, poor fit]"
same,Potency,[10],inactive
same,Potency,[4],inactive
same,Potency,[5],inactive
same,Potency,[11],inactive
same,Potency,[8],"inconclusive: 26.8 µM [activator, single point]"
NC[C@H]1O[C@H](O[C@H]2[C@H](O)[C@@H](O[C@H]3O[C@H](CO)[C@@H](O)[C@H](N)[C@H]3O)[C@H](N)C[C@@H]2N)[C@H](O)[C@@H](O)[C@@H]1O,activation,[1],inactive: 4.43% [at 8.36 µM]
same,activation,[9],inconclusive: 5.42% [at 5.95 µM]
same,Potency,[8],"inconclusive: 1.9 µM [activator, partial curve]"
Cn1nnc2c(C(N)=O)ncn2c1=O,Potency,[1],inactive
same,Potency,[2],"inconclusive: 0.0211 µM [cytotoxic, full curve, poor fit]"
same,Potency,[12],inactive
same,Potency,[8],inactive
O=C(NN1CCCC1)NS(=O)(=O)c1ccc(Cl)cc1,Potency,[1],inactive
same,Potency,[9],inactive
same,Potency,[5],inactive
same,Potency,[8],inactive
CCOC(CN1CCN(CC(C)C(=O)c2ccccc2)CC1)c1ccccc1 (stereo unspecified),Potency,[1],active: 10.3 µM
same,Potency,[13],"inconclusive: 18.4 µM [rising, partial curve, poor fit]"
same,Potency,[14],inactive
same,Potency,[11],inactive
same,activation,[8],inactive: 5.61% [at 15.8 µM]
CCCCN(CCO)CCCC,Potency,[1],inactive
same,Potency,[9],inactive
same,Potency,[3],inactive
same,Potency,[7],inactive
same,Potency,[8],inactive
CCCCOc1cc(C(=O)OCCN(CC)CC)ccc1N,Potency,[1],"inconclusive: 5.96 µM [rising, full curve, poor fit]"
same,Potency,[2],"inconclusive: 0.106 µM [cytotoxic, full curve, poor fit]"
same,Potency,[9],inactive
same,Potency,[12],inactive
same,Potency,[15],inactive
same,Potency,[7],inactive
same,activation,[8],inconclusive: 17.2% [at 35.3 µM]
CNCC[C@@H](Oc1ccccc1C)c1ccccc1,Potency,[1],"inconclusive: 37.6 µM [rising, partial curve, poor fit]"
same,Potency,[2],"inconclusive: 0.133 µM [cytotoxic, full curve, poor fit]"
same,Potency,[10],"inconclusive: 33.5 µM [cytotoxic, partial curve, poor fit]"
same,Potency,[3],"inconclusive: 33.5 µM [partial curve, poor fit]"
same,Potency,[7],inactive
same,Potency,[14],"inconclusive: 18.8 µM [cytotoxic, partial curve, poor fit]"
same,Potency,[11],inactive
same,Potency,[8],active: 21.3 µM
O=C(Nc1ccc(Cl)c(Cl)c1)C1CC1,Potency,[1],active: 15 µM
same,Potency,[2],inactive
same,Potency,[3],inactive
same,Potency,[15],inconclusive: 0.0007 µM
same,Potency,[8],inactive
CCC(C(=O)OCCN(CC)CC)c1ccccc1 (stereo unspecified),Potency,[1],inactive
same,Potency,[2],"inconclusive: 1.33 µM [cytotoxic, single point]"
same,Potency,[7],inactive
same,Potency,[8],"inconclusive: 0.0477 µM [falling, partial curve, poor fit]"
C=CC(=O)OCC(C)OCC(C)OCC(C)OC(=O)C=C (stereo unspecified),activation,[1],inconclusive: 22.6%
same,Potency,[2],active: 15.5 µM
same,Potency,[9],inconclusive: 37.4 µM
same,Potency,[3],"inconclusive: 61.6 µM [rising, single point]"
same,Potency,[4],inconclusive: 61.6 µM [cytotoxic]
same,Potency,[5],inconclusive: 49 µM
same,Potency,[16],"inconclusive: 61.6 µM [cytotoxic, single point]"
same,Potency,[15],inconclusive: 61.6 µM [single point]
same,Potency,[7],inconclusive: 54.9 µM
same,Potency,[14],"inconclusive: 54.9 µM [cytotoxic, single point]"
same,Potency,[11],"inconclusive: 61.6 µM [cytotoxic, single point]"
same,Potency,[8],"inconclusive: 8.71 µM [falling, full curve]"
CCN(Cc1cccc(S(=O)(=O)O)c1)c1ccc(C(=C2C=CC(=[N+](CC)Cc3cccc(S(=O)(=O)[O-])c3)C=C2)c2ccccc2)cc1,Potency,[1],active: 38.3 µM
same,Potency,[9],inactive
same,activation,[3],inconclusive: -6.15%
same,Potency,[4],inactive
same,"ratio activity, negative = inhibition",[5],inconclusive: 0.702%
same,Potency,[15],"inconclusive: 38.6 µM [rising, single point]"
same,"activity change, negative = inhibition",[7],inconclusive: 13.9%
same,Potency,[11],"inconclusive: 6.86 µM [rising, full curve, poor fit]"
same,activation,[8],inconclusive: 6.61% [at 35.3 µM]
